According to PubChem BioAssay AID2546 (National Center for Advancing Translational Sciences (NCATS), 2010):
About 11,000 (3.5%) of roughly 310,000 compounds were called active. Inconclusive results, whose numbers are uncertain, are shown with a selection of clear calls. Calls follow the shape of the dose curve; as a rule, active = well fitted inhibition curve with a large enough effect; inconclusive = small, poorly fitted or top-dose-only effect, or effect the other way; inactive = flat fitted curve, though single readings scatter. No potency is given beside an inconclusive call; the fits are too rough.

Experiment: VP16 counterscreen qHTS for inhibitors of ROR gamma transcriptional activity;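 also: Gal4-VP16 expression switched on by copper sulfate through the metallothionein promoter; nearly all actives have a fitted effect of over 50% in size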
Conditions: Drosophila S2 Gal4-VP16 UAS-luciferase, luminescence, 20 h; activity, negative = inhibition: at 53.6 µM (top of the series)
% is scaled to controls: 0 for no effect and ±100 for the full control effect; potency is read from the fitted curve at half-maximal effect; tags tell the direction and shape of the fitted curve.

Question: Which Potency does the source give for `Cc1cccc(Nc2nc(-c3c(C)nc4ccccn34)cs2)c1` here?
Answer: inconclusive [inhibitor, single point]

Question: For `Cc1c(Br)c([N+](=O)[O-])nn1CC(=O)Nc1ccc(C(C)C)cc1`, which Potency is on record?
Answer: inconclusive [inhibitor, single point]

Question: With `Cc1cc(C)c2cc(CN(CCN3CCCC3)C(=O)Nc3ccc(F)cc3)c(=O)[nH]c2c1` as the compound, how does the “activity, negative = inhibition” value read?
Answer: inactive: -17.8%

Question: For `COc1ccc(NC(=O)CC(C)(C)C)c([N+](=O)[O-])c1`, which Potency is on record?
Answer: inconclusive [activator, single point]

Question: With `O=C(NCCS(=O)c1ccc(Cl)cc1)c1cccc(Cl)c1` (stereo not given) as the compound, how does the “activity, negative = inhibition” value read?
Answer: inactive: 1.2%

Question: Which Potency does the source give for `CCNc1ccc(Br)cc(C(=O)/C=C/c2c(Cl)cccc2Cl)c1=O` here?
Answer: inconclusive [inhibitor, single point]

Question: Which Potency does the source give for `O=C(NC(=S)Nc1ccc(N2CCCCC2)c(Cl)c1)c1ccc2c(c1)OCCO2` here?
Answer: active: 6.31 µM

Question: With `Fc1ccc(/C=N/NC(=S)Nc2ccc(Cl)cc2Cl)cc1` as the compound, how does the Potency read?
Answer: inconclusive [inhibitor, single point]

Question: With `COc1ccccc1CCNC(=O)C1CCC(=O)N(Cc2ccccc2OC)C1` (stereo not given) as the compound, how does the “activity, negative = inhibition” value read?
Answer: inactive: -1.03%

Question: With `O=C(N/C=C/c1ccco1)Nc1cccc(Cl)c1` as the compound, how does the “activity, negative = inhibition” value read?
Answer: inactive: 9.12%

Question: Which “activity, negative = inhibition” value does the source give for `CCOc1ccc(NC(=O)CN2CCN(CC(=O)Nc3cccc(F)c3)CC2)cc1` here?
Answer: inactive: 8.24%

Question: Which “activity, negative = inhibition” value does the source give for `CCCNC(=O)OC[C@H]1O[C@H](CCO/N=C(\C)CCN2CCc3nc(-c4ccccc4)c(-c4ccccc4)cc3C2)C=C[C@@H]1Oc1ccc(OC)cc1` here?
Answer: inactive: -10.5%

Question: Which Potency does the source give for `O=C(NC(=S)Nc1nc2c(ccc3ccccc32)s1)c1cccs1` here?
Answer: active: 3.16 µM

Question: Which Potency does the source give for `CC1=CC(=O)C(C(C)C)=C/C1=N/OC(=O)c1cccc([N+](=O)[O-])c1` here?
Answer: inconclusive [inhibitor, single point]

Question: With `COCCOC(=O)c1[nH]c2c(c1C)C(=O)C(C(=O)OC)C(C)C2` (stereo not given) as the compound, how does the “activity, negative = inhibition” value read?
Answer: inactive: 6.83%

Question: Which Potency does the source give for `Cc1ccc(NC(=S)NCCC2=CCCCC2)cc1` here?
Answer: active: 6.31 µM

Question: Which Potency does the source give for `O=C(NCCc1c[nH]c2ccccc12)C(=O)NCC1OCCN1S(=O)(=O)c1ccc(Cl)cc1` (stereo not given) here?
Answer: inconclusive [inhibitor, single point]

Question: Which “activity, negative = inhibition” value does the source give for `Cc1cccc(N(Cc2cc3ccccc3[nH]c2=O)S(C)(=O)=O)c1` here?
Answer: inactive: -3.5%

Question: For `N#CCCn1c(=O)c(-c2ccc(Cl)cc2)nc2cnc(Oc3cccc(Cl)c3)nc21`, which “activity, negative = inhibition” value is on record?
Answer: inactive: 3.36%

Question: With `CCOC(=O)c1[nH]c2c(c1C)C(=O)CC(c1ccc(F)cc1)C2` (stereo not given) as the compound, how does the Potency read?
Answer: inconclusive [inhibitor, single point]

Question: With `NS(=O)(=O)c1cccc(NC(=O)COc2ncnc3c2cnn3-c2ccccc2)c1` as the compound, how does the “activity, negative = inhibition” value read?
Answer: inactive: -22.5%

Question: Which Potency does the source give for `CC(C)c1nnc(NC(=O)c2nc(S(=O)(=O)Cc3ccccc3)ncc2Cl)s1` here?
Answer: active: 11.2 µM

Question: Which “activity, negative = inhibition” value does the source give for `CN1CCN(C(=O)C2=C[C@@H](c3ccc(Br)cc3)C[C@@H](OCc3ccc(CO)cc3)O2)CC1` here?
Answer: inactive: -23.2%

Question: For `CSc1ccc(-c2nnn(Cc3ccc(C)cc3)n2)cc1`, which Potency is on record?
Answer: inconclusive [inhibitor, full curve]

Question: For `N#CCc1nn2c3c(cnc2c1C#N)C(=O)CCC3`, which Potency is on record?
Answer: inconclusive [inhibitor, single point]

Question: For `O=C(Nc1ccc(OC(F)(F)F)cc1)C1=NCCN1`, which Potency is on record?
Answer: inconclusive [inhibitor, single point]

Question: With `CN1c2ccccc2C(O)=C(C(=S)Nc2ccccc2)S1(=O)=O` as the compound, how does the Potency read?
Answer: inconclusive [inhibitor, single point]

Question: Which Potency does the source give for `Cc1ccccc1CS(=O)(=O)c1nnc([C@H](Cc2ccccc2)NC(=O)OC(C)(C)C)o1` here?
Answer: active: 3.16 µM

Question: With `O=C(Nc1cccc(C(F)(F)F)c1)C(SCCO)c1ccccc1` (stereo not given) as the compound, how does the “activity, negative = inhibition” value read?
Answer: inactive: -9.33%

Question: With `O=S(=O)(CC(CN1CCCC1)N1CCCC1)c1ccc2ccccc2c1` (stereo not given) as the compound, how does the Potency read?
Answer: active: 11.2 µM

Question: With `Cc1ccc(F)cc1-c1ccc(C(=O)N=C(N)N)o1` as the compound, how does the “activity, negative = inhibition” value read?
Answer: inactive: -2.02%

Question: For `Cc1nn(-c2ccccc2)c2sc(C(=O)N3CCOCC3)cc12`, which Potency is on record?
Answer: inconclusive [activator, single point]

Question: For `Cc1cc(=O)oc2cc(OCC(=O)N3CCN(C(=O)c4ccco4)CC3)ccc12`, which “activity, negative = inhibition” value is on record?
Answer: inactive: 3.75%

Question: With `O=C1CN(c2ccccc2)C(=S)N1C(=O)c1ccccc1` as the compound, how does the Potency read?
Answer: inconclusive [inhibitor, single point]

Question: With `Cc1ccc(S(=O)(=O)Nc2cccc(-c3cn4ccsc4n3)c2)cc1` as the compound, how does the Potency read?
Answer: inconclusive [inhibitor, single point]

Question: For `Cc1ccc(/C=N/NC(=S)NC2CCCCC2)o1`, which Potency is on record?
Answer: active: 2 µM

Question: For `CC(C)c1cc(C(=O)N/N=C/c2ccoc2)c(O)c(C(C)C)c1`, which Potency is on record?
Answer: active: 3.16 µM

Question: Which Potency does the source give for `O=S(=O)(Nc1cccc(CCc2ccccn2)c1)c1ccc2ccccc2c1` here?
Answer: active: 2.51 µM

Question: Which Potency does the source give for `CCS(=O)(=O)Nc1ccc(C2=NN(C(=O)c3ccco3)C(c3ccc(C)cc3)C2)cc1` (stereo not given) here?
Answer: active: 17.8 µM

Question: For `Cc1ccc(S(=O)(=O)NCC(=O)N(CC(=O)NCC2CCCO2)Cc2ccc(Cl)cc2)cc1` (stereo not given), which Potency is on record?
Answer: inconclusive [inhibitor, full curve, poor fit]

Question: With `Fc1ccccc1-c1nnc2c3ccccc3nc(N3CCOCC3)n12` as the compound, how does the “activity, negative = inhibition” value read?
Answer: inactive: -3.99%

Question: For `CO/N=C\c1ccc(C(=O)N2[C@H](c3ccc(C)cc3)[C@@H](C)CC[C@H]2C(=O)OC)cc1`, which activity, negative = inhibition is on record?
Answer: inactive: 2.34% [at 10 µM]

Question: Which “activity, negative = inhibition” value does the source give for `Cc1c(C(=O)N2CCOCC2)sc(NC(=O)C(C)C)c1C#N` here?
Answer: inactive: 0.142%

Question: With `Cc1nnn(-c2nonc2N)c1C(=O)N/N=C/c1cccc2ccccc12` as the compound, how does the Potency read?
Answer: active: 12.6 µM

Question: Which Potency does the source give for `Cc1[nH]n(-c2nc(-c3cccc([N+](=O)[O-])c3)cs2)c(=O)c1C` here?
Answer: inconclusive [inhibitor, single point]

Question: With `Cc1ccc(NC(=O)C2CC(=O)N/C(=N/NC(=O)c3ccc(C)cc3)S2)cc1` (stereo not given) as the compound, how does the Potency read?
Answer: active: 10 µM

Question: For `CC(=O)c1ccc(S(=O)(=O)N2CCN(S(=O)(=O)c3ccccc3C(F)(F)F)CC2)cc1`, which “activity, negative = inhibition” value is on record?
Answer: inactive: 4.58%

Question: For `COc1cc(OC)cc(C2=Nn3c(nnc3-c3ccccc3O)SC2)c1`, which Potency is on record?
Answer: inconclusive [inhibitor, single point]

Question: For `Cn1c(=O)c([N+](=O)[O-])c(-n2ccnc2)c2ccccc21`, which Potency is on record?
Answer: active: 7.94 µM

Question: For `CN(CC(=O)NCc1ccc(F)cc1)S(=O)(=O)c1ccc2c(c1)c(=O)n(C)c(=O)n2C`, which “activity, negative = inhibition” value is on record?
Answer: inactive: 4.21%
